Over roughly 33,000 sequences, “E-score (-0.5 to 0.5)” has its median near -0.016; the highest 2% begin near 0.31. This is one part of the list.
Each sequence was assayed against Cst6 (UniProt P40535) (assay: PBM E-score (8-mer binding enrichment) (E-score (-0.5 to 0.5)); higher = stronger / more preferred TF binding; most listed sequences are background and not binding sites). Conditions: protein concentration: 200 nM; construct: GST-DNA-binding domain.
Outline: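 E-scores (a modified Wilcoxon-Mann-Whitney statistic) were assigned by the Universal PBM Analysis Suite to every ungapped eight-base word pooled with its reverse complement. The input came from universal all-10-mer Agilent arrays made double-stranded by primer extension and probed with GST-tagged yeast transcription factors at about 100-200 nM. Fluorescent anti-GST detected bound protein, and masliner normalised the scans.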

| Sequence | PBM E-score |
| --- | --- |
| AATTAACT | 0.17 |
| AAGCGTAT | 0.00964 |
| AAGCGCTA | 0.0622 |
| CAGCCTAC | -0.183 |
| CGCGGGCA | 0.00078 |
| CCTCGCCG | -0.332 |
| CTCTACGC | -0.109 |
| GCCCCTAA | -0.317 |
| AGCACGTA | -0.0004 |
| CAGTGTGG | -0.119 |
| CAAACTGC | 0.0914 |
| ACGCGTAC | 0.0978 |
| GATACGCC | -0.1 |
| CGCATTAG | -0.0836 |
| CTTACGAC | -0.0377 |
| AAAGTCAG | 0.0101 |
| AAAACAAG | 0.0655 |
| CGTGCGAG | 0.0367 |
| ATAGGTTG | -0.053 |
| ACCACGCT | -0.118 |
| GAGAGTAA | 0.104 |
| ACAATGTA | 0.117 |
| TCACATAA | 0.237 |
| ATCGTTAC | 0.0267 |
| GCCCGAGC | -0.18 |

| Sequence | PBM E-score |
| --- | --- |
| ATAAAATC | 0.151 |
| ACGAGGTG | -0.0315 |
| AGTCACTA | 0.209 |
| GCCCGTTA | -0.235 |
| CCCCCATA | -0.336 |
| CAAGATGC | 0.0767 |
| ATATGCTG | -0.053 |
| GCAATACA | 0.214 |
| CAAGTATC | -0.0576 |
| ACATCGCA | -0.115 |
| GCTTCGTA | -0.222 |
| CATCAGGC | 0.124 |
| AGCCTCTC | -0.316 |
| CCACACCG | 0.017 |
| CAGCAGCG | -0.0773 |
| CCTGCGAC | -0.317 |
| AATGCAGT | -0.0148 |
| CCATGTGC | -0.00378 |
| AGCCAGGG | -0.248 |
| ACTGGATG | -0.144 |
| GACCCCAA | -0.206 |
| ATGAGGGA | -0.0325 |
| AGATGTTG | -0.138 |
| AGTTTAAA | 0.224 |
| AGGTCGGG | -0.171 |

| Sequence | PBM E-score |
| --- | --- |
| GCAGAAGC | -0.0357 |
| GACGCTCA | 0.0748 |
| ACAGTTAT | -0.0188 |
| AGCTAGCA | -0.097 |
| ACTGGACC | -0.0967 |
| GAATGTGC | 0.07 |
| ATCATGAA | 0.17 |
| CAGCGCAA | -0.0337 |
| AAGACATG | 0.113 |
| GGCCCAAA | -0.2 |
| CGGGCCAG | -0.158 |
| CTTGGGGC | -0.0223 |
| CGTAAGCA | 0.178 |
| CAGTCCAG | -0.315 |
| AGATAAAC | 0.0985 |
| AGACTCCT | -0.157 |
| ATCTAGGC | -0.253 |
| TCACGAAA | 0.18 |
| CGCCGGCC | -0.168 |
| ACGCTTCG | -0.0355 |
| CACTCCAC | -0.0301 |
| AGACTCCC | -0.342 |
| TGCCTCAA | -0.0378 |
| ACCGCGGC | 0.164 |
| CAACCTGC | -0.0302 |

| Sequence | PBM E-score |
| --- | --- |
| ACTACCGC | -0.0306 |
| AAGGCTCG | -0.202 |
| CCCTTCGG | -0.0367 |
| CTCTCCAC | -0.308 |
| ACGTTTCT | -0.0531 |
| GCGAATGA | 0.263 |
| AATCCAAC | -0.118 |
| ACGACCCT | -0.238 |
| CACCTCTG | -0.172 |
| AGGTGGTA | -0.0325 |
| CCTATTAC | 0.147 |
| CGCGATCA | 0.0196 |
| AAGCAAAG | -0.0626 |
| AGATGCCC | -0.166 |
| CTGTGTCA | 0.0935 |
| GCAGTAGA | -0.0865 |
| ACTTTCTG | 0.0842 |
| CGACGAAC | -0.0573 |
| CGCTTATA | 0.245 |
| CGTCTTTC | -0.0618 |
| AGAGTTGC | -0.2 |
| GGAAACAC | 0.0622 |
| ACGTGGCT | 0.0489 |
| GCAAGGCA | 0.16 |
| CTCGATTA | 0.17 |

| Sequence | PBM E-score |
| --- | --- |
| CGGGCGTC | -0.0942 |
| CGGAGAGC | -0.0924 |
| AGCTAAAT | 0.0716 |
| ATATGGCC | -0.144 |
| GAAAACTA | 0.0568 |
| CAAGGGTA | -0.223 |
| CGATTGTA | 0.0905 |
| ATTGCCTC | 0.144 |
| AACACACG | 0.0436 |
| TGCACCAA | -0.0568 |
| TATGTTCA | 0.0647 |
| AGGCTGCC | -0.276 |
| CATACACC | -0.0592 |
| AACGTTGA | 0.16 |
| GCTCCCAA | -0.219 |
| AAACGTGA | 0.137 |
| AGCAGTTG | -0.162 |
| GCCGCAGA | 0.136 |
| CATTTCAG | 0.0441 |
| GCTCGCCA | -0.255 |
| ACTGGTAA | 0.107 |
| CACAGGCG | -0.0418 |
| AAGCCAAT | -0.00288 |
| TAACAAAA | 0.353 |
| TCGTTGCA | 0.00185 |

| Sequence | PBM E-score |
| --- | --- |
| GGCCACAC | -0.159 |
| ACATTGTA | 0.0674 |
| AATGCTTG | -0.156 |
| TTGCTAAA | 0.0398 |
| GTCCGCCA | -0.193 |
| GCAGATGC | -0.122 |
| GTAGCTAA | -0.0668 |
| CAGGCAGA | -0.0347 |
| CTAGCGGC | -0.249 |
| GCCGCGTA | 0.191 |
| AGTAGGCC | -0.195 |
| AACTGGTC | -0.14 |
| AGAGGGTG | -0.204 |
| CATGCTCA | 0.0311 |
| AGCCTTCG | -0.254 |
| CATGCCTC | 0.225 |
| CTAAGTGC | -0.0297 |
| CCATAGGG | -0.192 |
| GTCTGCGA | -0.0431 |
| AGATGATC | 0.0705 |
| AGTCGTCG | -0.197 |
| TGCAAGCA | -0.0921 |
| CGTCATTC | 0.467 |
| ACCAGCTA | -0.0308 |
| ATTATCCC | 0.106 |

| Sequence | PBM E-score |
| --- | --- |
| ATGCGCAA | 0.0379 |
| CGTGAAAG | 0.143 |
| ACTGCCCA | -0.241 |
| CTGCAGGC | -0.202 |
| GCTAAACA | 0.0779 |
| CTATGCCA | -0.114 |
| GGTTATAA | 0.152 |
| CAACCACG | 0.0314 |
| AACCAAGG | 0.00035 |
| GCCTCAAA | -0.00267 |
| AAAGGCGT | 0.0889 |
| CGAGGATA | -0.0893 |
| ATCGTGGA | -0.0118 |
| GAAGCGAC | -0.145 |
| AAGCCTAT | 0.088 |
| GACGTCTC | 0.195 |
| GAGTGAAA | 0.00981 |
| TCCAACCA | -0.0556 |
| ATCTAGGG | -0.0697 |
| ATCGTGCC | 0.0448 |
| CAGATCTC | -0.0666 |
| AGGCTCCC | -0.306 |
| ACCAAAAA | 0.257 |
| AGCACACC | -0.204 |
| AACCAAAC | -0.102 |

| Sequence | PBM E-score |
| --- | --- |
| ATTTAGGC | 0.0895 |
| ATCCTAGG | -0.302 |
| CCTACAGA | -0.179 |
| ACCCCGGT | -0.348 |
| CTGGAGCC | -0.164 |
| AATGGGGT | 0.0446 |
| CGTAGTTC | -0.059 |
| GGTTAAAC | -0.0296 |
| ATTTGGGC | -0.102 |
| GCCGAGGC | 0.118 |
| CGAGCACG | -0.21 |
| AGCGAGAT | 0.0245 |
| CTTAAGGC | -0.0441 |
| ATCGCTTC | -0.00604 |
| GCAAACCA | 0.0183 |
| ATCCATGA | -0.0487 |
| CAGGACCA | -0.193 |
| CCGTGGCC | -0.29 |
| CTGAAAAG | 0.0398 |
| GAACGTTC | -0.193 |
| GAGCGTAC | -0.197 |
| ATTGCCAC | -0.00183 |
| AGCGATTA | -0.00916 |
| AGCCGAAG | -0.0711 |
| CTGAGCAA | -0.0142 |

| Sequence | PBM E-score |
| --- | --- |
| CCTTGCAC | -0.0974 |
| GCCTTCTA | -0.141 |
| AGCCTCAA | -0.117 |
| ACCTTATC | 0.104 |
| CCGGTGGC | -0.24 |
| AAGACGGT | -0.112 |
| GTTGTGCA | -0.317 |
| CCCACCCG | -0.0131 |
| AACTTCGT | 0.0193 |
| GTTTTTGA | 0.153 |
| ATGTACTC | -0.0162 |
| ACCCAATG | 0.00684 |
| ACGGCATC | 0.375 |
| CACTGACA | 0.08 |
| CATCAATG | 0.278 |
| CTGTTCAC | -0.141 |
| CTCCGGTA | -0.0404 |
| AAAGTCTG | -0.0989 |
| TCAGCTCA | 0.0126 |
